This is an account of results in a collection of fitness landscapes (doi:10.1126/science.1257360).

The labels stand for the following.
B1: PhoQ; a variant is named by its letters at X, in order, P23837 (parent)
chain: MKKLLRLFFPLSLRVRFLLATAAVVLVLSLAYGMVALIGYSVSFDKTTFRLLRGESNLFYTLAKWENNKLHVELPENIDKQSPTMTLIYDENGQLLWAQRDVPWLMKMIQPDWLKSNGFHEIEADVNDTSLLLSGDHSIQQQLQEVREDDDDAEMTHSVAVNVYPATSRMPKLTIVVVDTIPVELKSSYMVWSWFIYVLSANLLLVIPLLWVAAWWSLRPIEALAKEVRELEEHNRELLNPATTRELTSLVRNLNRLLKSERERYDKYRTTLTDLTHSLKTPLXXLQXXLRSLRSEKMSVSDAEPVMLEQISRISQQIGYYLHRASMRGGTLLSRELHPVAPLLDNLTSALNKVYQRKGVNISLDISPEISFVGEQNDFVEVMGNVLDNACKYCLEFVEISARQTDEHLYIVVEDDGPGIPLSKREVIFDRGQRVDTLRPGQGVGLAVAREITEQYEGKIVAGESMLGGARMEVIFGRQHSAPKDE

The list shows a part of the results. Bounds are passed on as bounds.

The variants in the assay derive from B1. The assay can be described thus: enrichment ratio after two sorts for PhoP signalling (ratio (wild type AVST 3.29)); higher = more functional. The settings on record: with PhoP (E. coli).
Take ARMA: the enrichment ratio is not above 0.25.
To ENGG belongs not above 0.25; to KWPR, not above 0.25.
To QFTY belongs not above 0.25.
In the case of TNIM it was not above 0.25; in that of QAKV, not above 0.25.
For the variant GHKC, the enrichment ratio was not above 0.25.
In the case of IREN, the enrichment ratio is not above 0.25.
In the case of MSSF, the enrichment ratio was determined as 0.41.
Take SFHI: the enrichment ratio is not above 0.25.
In the case of YPDP it was not above 0.25; in that of NSSI, not above 0.25.
In the case of INGR it was not above 0.25; in that of SSYL, 3.15; in that of GPYW, not above 0.25.
Regarding RQCA, the enrichment ratio is not above 0.25.
On to SHEM, for which the enrichment ratio was not above 0.25.
In the case of MRQH, the enrichment ratio is not above 0.25.
To KKCA belongs not above 0.25.
For KFAD, the enrichment ratio was not above 0.25.
To MMCT belongs not above 0.25.
RVLR: the enrichment ratio was not above 0.25.
In the case of HQMY it was not above 0.25; in that of SPDD, not above 0.25.
In the case of TCFN it was not above 0.25.
LGPK: the enrichment ratio was not above 0.25.
With AYHG, the enrichment ratio was not above 0.25.
In the case of QRIH it was not above 0.25; in that of YITR, 0.319; in that of HGME, not above 0.25.
To KKKS belongs not above 0.25; to NLTV, not above 0.25; to NDYM, not above 0.25.
To VQRT belongs not above 0.25; to VPCS, not above 0.25; to MHWY, not above 0.25.
For FKMD, the enrichment ratio is not above 0.25.
To MQSY belongs not above 0.25; to QFSD, not above 0.25.
To MFQP belongs not above 0.25; to DHSQ, not above 0.25; to NEWA, not above 0.25.
To IAHH belongs not above 0.25; to WLPV, not above 0.25.
For the variant VQLI, the enrichment ratio amounted to 1.37.
To LTGN belongs not above 0.25; to NMCY, not above 0.25; to MYFR, not above 0.25.
To SWWS belongs not above 0.25.
NLNL: the enrichment ratio is not above 0.25.
To RRTY belongs not above 0.25; to KHQL, not above 0.25.
To WSRL belongs not above 0.25; to GPRR, not above 0.25.
In the case of VKWC it was not above 0.25; in that of KGMD, not above 0.25; in that of HKNP, not above 0.25.
As to MNSW, the enrichment ratio was not above 0.25.
To QHCN belongs not above 0.25; to WIPK, not above 0.25.
In the case of YMYG it was not above 0.25.
To DMLK belongs not above 0.25; to VGYM, not above 0.25.
As to HSIC, the enrichment ratio was not above 0.25.
In the case of KFNH it was not above 0.25; in that of ECLL, 0.596.
With DWRQ, the enrichment ratio is not above 0.25.
In the case of TSWF it was 3.89; in that of AGCA, 15.
To KHYR belongs not above 0.25.
Consider NYYL, for which the enrichment ratio is not above 0.25.
As to HIKG, the enrichment ratio was not above 0.25.
To IKTE belongs not above 0.25.
To YIGR belongs not above 0.25; to GWPW, not above 0.25.
In the case of PMTW it was not above 0.25; in that of WFCC, not above 0.25.
Regarding PYQG, the enrichment ratio is not above 0.25.
With YWVP, the enrichment ratio was not above 0.25.
In the case of VINK it was not above 0.25.
In the case of FAWW it was not above 0.25; in that of AVVE, not above 0.25; in that of GLWF, not above 0.25.
In the case of TTPW it was not above 0.25.
